The whole screen tested about 150,000 compounds, of which about 540 (0.36%) showed an effect of 50% or more. Some of the results follow.

The test system of the assay is Plasmodium falciparum. The assay can be described thus: Primary screen in NF54 nanoGlo assay, in single point, at 2uM, 72h; a lower Z score goes with more inhibition. Format: functional, Erythrocyte. The following applies: timepoint 72 hour.
Regarding `COC[C@@](C)(C#N)NC(=O)c1ccsc1`, the “% Inhibition” value was -10% and the Z score was found to be 1.03.
On the same counts, the results for `Cn1cc(C2OCCC2CNCc2csc(C3CC3)n2)cn1` (configuration not stated) are 1% and -0.14.
`CC(=O)N[C@H]1C[C@H]2CN(Cc3cc(Cl)ccc3F)CC(=O)N2C1`: the “% Inhibition” value was -20% and the Z score stood at 1.78.
For `C#CCCC1(CCC(=O)N2CCc3cc(OC)c(Cl)cc3C2)N=N1`, the “% Inhibition” value is on record as 1% and the Z score is recorded as -0.16.
The like results for `CC1OC(C)C(C(=O)Nc2ccc3c(n2)OCCO3)C1C` (configuration not stated) were, in that order, -16% and 2.38.
On the same counts, the results for `CCNc1cnc(-c2noc([C@@H]3CCO[C@H]3c3ccnn3C)n2)cn1` are -7% and 1.28.
On the same counts, the results for `O=C(Cc1ccccc1)NC[C@H]1CCCN(c2nnnn2-c2ccccc2)C1` are -3% and 0.38.
For the molecule `COCC1(C(=O)N2CCC(n3cc(C(=O)NCC(C)C)nn3)CC2)CCC1`, the “% Inhibition” value is given as -1% and the Z score is 0.13.
On the same counts, the results for `CN(C)C[C@H]1CN(Cc2cnn(-c3ccccc3)n2)CCO1` are -10% and 1.47.
The like results for `Cc1cccc(OCC(=O)N[C@H]2CCCN(c3ccc(=O)n(CC4CC4)n3)C2)c1` were, in that order, -9% and 1.2.
The like results for `CC1(O)CN(S(=O)(=O)c2cccnc2)C1` were, in that order, 3% and -0.44.
`O=C(O)c1cccc(-c2ccc(CNC3CCCCC3)o2)c1`: the “% Inhibition” value is reported as -24% and the Z score is recorded as 2.74.
On the same counts, the results for `O=S(=O)(Cc1ccccc1)N1CCC(NCc2ccccn2)CC1` are 2% and -0.36.
On the same counts, the results for `COc1ccc(CN(C(=O)C2=CCCCO2)c2ccncc2)cc1` are -11% and 1.41.
The like results for `C=CCn1nnc(NC(=O)c2ccc3c(c2)OCCO3)n1` were, in that order, 0% and -0.04.
`CC(C)C(=O)NCC1CCCC1NC(=O)OC(C)(C)C` (configuration not stated): the “% Inhibition” value was determined as 4% and the Z score is given as -0.55.
On the same counts, the results for `Cc1csc(NC(=O)c2ccc3nc(-n4c(C)ccc4C)sc3c2)n1` are -1% and 0.2.
Turning to `Cc1ccc(CN2CCC[C@](CC3CC3)(C(N)=O)C2)o1`, the “% Inhibition” value was -8% and the Z score is 1.06.
On the same counts, the results for `CC(C)(C)c1ccc(C(=O)Nc2nnc(-c3ccc4c(c3)OCO4)s2)cc1` are 3% and -0.34.
On to `O=C(Cn1ccc(-c2cccc(-c3nccs3)c2)n1)NCc1ccco1`, for which the “% Inhibition” value is -3% and the Z score was found to be 0.36.
For `O=C(NCCc1ccccc1)c1ccc(-n2cncn2)nn1`, the “% Inhibition” value is -15% and the Z score was 1.91.
On the same counts, the results for `O=C(Nc1cccnc1)[C@H]1CCCN(S(=O)(=O)Cc2ccc(Cl)cc2)C1` are -2% and 0.3.
On the same counts, the results for `Cc1cc(C2CCC(C(=O)NCc3ccco3)CN2C(=O)C2CCCC2)ccc1F` (configuration not stated) are -10% and 1.69.
The like results for `CC[C@@H]1CN(C(=O)c2cnc(C(C)C)[nH]c2=O)CC[C@]1(C)O` were, in that order, 7% and -0.94.
For the molecule `Cc1ccc(S(=O)(=O)Nn2nnc(-c3ccccc3)c2C)cc1`, the “% Inhibition” value was -14% and the Z score turned out to be 1.86.
In the case of `O=S(=O)(c1ccc(F)cc1)N1CCN(c2ncnc3c2cnn3-c2ccc(F)cc2)CC1`, the “% Inhibition” value is on record as -7% and the Z score was determined as 0.63.
On the same counts, the results for `O=C(CCc1n[nH]c(Cc2ccc3c(c2)OCO3)nc1=O)NCCOc1ccccc1` are -10% and 1.7.
The like results for `O=C(Cn1cncn1)Nc1cnn(C[C@H]2COc3ccccc3O2)c1` were, in that order, -4% and 0.53.
The like results for `NS(=O)(=O)c1ccc(Cn2ccnc2[C@H]2CCOC2)cc1` were, in that order, -8% and 1.08.
For the molecule `O=C1NC2(CCCC2)C(=O)N1CC(=O)N1CCCc2ccccc21`, the “% Inhibition” value is reported as -8% and the Z score worked out at 1.37.
On the same counts, the results for `O=C(Cn1nccn1)N1CCC(c2nc3ccccc3o2)CC1` are -12% and 2.06.
On the same counts, the results for `Cn1cnn(CC(=O)N2CCN(S(=O)(=O)c3ccc4ccccc4c3)CC2)c1=O` are 1% and -0.08.
Take `CC[C@H](C)NS(=O)(=O)Cc1ccc(Br)cc1`: the “% Inhibition” value is on record as -7% and the Z score worked out at 1.23.
On the same counts, the results for `O=C(Nc1ccccc1)N1CCCCC[C@H]1c1ccccc1Cl` are 1% and -0.15.
Regarding `CN1C(=O)CC[C@H]1C(=O)Nc1cc(Cl)cc2cn[nH]c12`, the “% Inhibition” value is given as -3% and the Z score turned out to be 0.41.
For `CCCN(CC(=O)NC)Cc1nc(CC)cc(N(CCC)CC(=O)NC)n1`, the “% Inhibition” value stood at 3% and the Z score is given as -0.6.
The like results for `Cc1cc(N2Cc3ncccc3C2=O)ccc1N1CCCC1=O` were, in that order, -10% and 1.55.
The like results for `CS(=O)(=O)N1CCC(c2nnc3sc(-c4cccc5cccnc45)nn23)CC1` were, in that order, -8% and 1.2.
The like results for `O=C1C[C@H](c2ccc3c(c2)OCO3)c2cnn(Cc3ccc4c(c3)OCO4)c2N1` were, in that order, -14% and 1.78.
In the case of `CC(C)CCn1c2c(c(=O)[nH]c1=O)[C@H](C(=O)Nc1ccc(OC(F)(F)F)cc1)CC(=O)N2`, the “% Inhibition” value came to 8% and the Z score is -0.99.
The like results for `C[C@H](NC(=O)c1cccn1C1CC1)c1cnn(C)c1` were, in that order, -7% and 1.24.

As a reminder, the % Inhibition is the drop in the measured response relative to a control, in per cent.

The values above are taken from ChEMBL document CHEMBL4888484, “Replenishing the malaria drug discovery pipeline: Screening and hit evaluation of the MMV Hit Generation Library 1 (HGL1) against asexual blood stage Plasmodium falciparum ,using a nano luciferase reporter read-out” (2022).
